# Measurements from PubChem BioAssay AID2675 (National Center for Advancing Translational Sciences (NCATS), 2010).
# Hit rate of the full screen: of about 280,000 compounds, about 100 (0.036%) were called active. The inconclusive results got no clear call from the source; some entries with a clear call stand among them for comparison. Calls come from the whole dose curve; as a rule, active = well fitted inhibition curve with a large enough effect in the signal ratio, with a control signal flat (not every such curve was filed as active); inconclusive = small, poorly fitted or top-dose-only effect, or effect the other way, or a change in a side signal; inactive = no such curve, though single readings can be large or run the other way; the % refers to the signal ratio. Potencies beside an inconclusive call are fits to weak or partial responses and may not hold up. A note “side channel” means that the fit belongs to a control or component signal, not to the main read-out.
# Target: Muscleblind-like protein 1 (Homo sapiens) (UniProt Q9NR56)
# Assay: qHTS Assay for Inhibitors of MBNL1-poly(CUG) RNA binding
# Conditions: TR-FRET MBNL1-His/biotin-(CUG)12 binding, 665/545 ratio; series mostly up to 57.5 µM
# Method in brief: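 Compounds (final 92 nM to 58 uM) are added to His-tagged MBNL1 and biotin-(CUG)12, then terbium anti-His antibody and streptavidin-XL665 (5 nM final). After 60 min at room temperature, the 665/545 nm ratio is read.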
# Potency is the fitted concentration of half-maximal effect; tags give direction and shape of the fitted curve or compound fluorescence and quenching.
# Sequence of UniProt Q9NR56 (Q9NR56 whole entry, looked up): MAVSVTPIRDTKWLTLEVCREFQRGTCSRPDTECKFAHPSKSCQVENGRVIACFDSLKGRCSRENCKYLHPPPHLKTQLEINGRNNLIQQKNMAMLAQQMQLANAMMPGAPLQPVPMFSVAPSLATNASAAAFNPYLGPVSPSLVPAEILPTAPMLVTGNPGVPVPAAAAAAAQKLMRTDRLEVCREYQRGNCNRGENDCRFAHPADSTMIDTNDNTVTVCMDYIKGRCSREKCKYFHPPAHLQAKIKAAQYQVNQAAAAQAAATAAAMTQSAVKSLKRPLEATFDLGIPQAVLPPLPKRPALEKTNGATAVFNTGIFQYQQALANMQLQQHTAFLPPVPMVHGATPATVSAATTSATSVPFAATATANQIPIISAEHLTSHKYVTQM
row,Structure (SMILES),Potency
1,COc1ccc(CC2(CCc3ccncc3)C(=O)NC(=O)NC2=O)c(OC)c1,"inconclusive: 100 µM [inhibitor, partial curve]"
2,CC(=NCCC1=CCCCC1)c1c(O)n(C)c(=O)n(C)c1=O,"inconclusive: 3.16 µM [fluorescent, side channel, single point]"
3,O=[N+]([O-])c1ccc(N2CCNCC2)cc1N1CCCCCC1,"inconclusive: 15.8 µM [quencher, side channel, partial curve]"
4,CN1c2ccc([N+](=O)[O-])cc2CC2(C(=O)NC(=O)NC2=O)C1c1ccccc1 (configuration not stated),"inconclusive: 25.1 µM [quencher, side channel, single point]"
5,CCOc1cc(/C=C2/NC(=O)N(CC(=O)Nc3cccc(C)c3)C2=O)ccc1O,"inconclusive: 0.708 µM [quencher, side channel, full curve, poor fit]"
6,COC(=O)C(O)(c1c(C)[nH]n(-c2ccccc2)c1=O)C(F)(F)F (configuration not stated),inactive
7,CN(C)c1ccc(-[n+]2c(-c3ccccc3)cc(-c3ccccc3)cc2-c2ccccc2)cc1,"inconclusive: 7.94 µM [quencher, side channel, full curve, poor fit]"
8,O=c1[nH]c2ccccc2o1,"inconclusive: 100 µM [inhibitor, single point]"
9,CCOc1cccc(OCC)c2c(C)[n+](CC3CCCO3)c(C)c1-2 (configuration not stated),inactive
10,Cc1ccc(C(=O)C2C(=O)c3ccccc3C2=O)cc1,"inconclusive: 31.6 µM [quencher, single point]"
11,CC(C)(C)P(=O)(NCc1ccccc1)c1ccccc1 (configuration not stated),inactive
12,CCNc1cc(N2CCNCC2)ccc1[N+](=O)[O-],"inconclusive: 5.62 µM [quencher, side channel, partial curve]"
13,O=C1c2cccc3cc([N+](=O)[O-])cc(c23)C(=O)N1c1ccccc1O,"inconclusive: 8.91 µM [quencher, side channel, partial curve]"
14,O=C(CNC(=O)c1ccc(Br)cc1)NCC(=O)OCC(=O)c1ccc([N+](=O)[O-])cc1,"inconclusive: 17.8 µM [quencher, side channel, partial curve]"
15,CCc1cc(=O)[nH]c(SCCCF)n1,"inconclusive: 126 µM [inhibitor, partial curve]"
16,Cc1cccc(N2C(=O)NC(=O)/C(=C/c3cc4c(cc3[N+](=O)[O-])OCO4)C2=O)c1,"inconclusive: 14.1 µM [quencher, partial curve]"
17,O=C(/C=C/C=C/c1ccccc1)CC1(O)C(=O)Nc2ccccc21 (configuration not stated),"inconclusive: 20 µM [quencher, side channel, partial curve]"
18,Cn1c(O)c(/C=N/NC(=O)c2ccncc2)c(=O)n(C)c1=S,"inconclusive: 28.2 µM [quencher, single point]"
19,Cc1cccc(CCNCc2cc3cc(C)cc(C)c3[nH]c2=O)c1,"inconclusive: 17.8 µM [quencher, side channel, partial curve, poor fit]"

row,Structure (SMILES),Potency
1,CCOC(=O)c1c(N)n(Cc2ccco2)c2nc3ccccc3nc12,"inconclusive: 15.8 µM [quencher, partial curve]"
2,CN1CCc2nc(SCc3ccccc3Br)c(C#N)cc2C1,"inconclusive: 15.8 µM [quencher, side channel, partial curve]"
3,N#CCCn1cc(C(=O)Nc2ccccc2Br)c(-c2ccc([N+](=O)[O-])cc2)n1,"inconclusive: 8.91 µM [quencher, side channel, partial curve]"
4,CCN(CC)c1ccc(/C=C2\C(=O)NC(=S)N(C)C2=O)o1,"inconclusive: 3.16 µM [quencher, side channel, full curve]"
5,CN1C2CCC1CC(OC(=O)c1ccc([N+](=O)[O-])cc1)C2 (configuration not stated),"inconclusive: 0.224 µM [quencher, side channel, full curve, poor fit]"
6,Cc1ccc(N2C(=O)NC(=O)/C(=C\c3cn(CC(=O)O)c4ccccc34)C2=O)cc1,inactive
7,Cc1ccc(NC(=O)COC(=O)/C=C/c2ccco2)cc1S(=O)(=O)N(C)C,"inconclusive: 25.1 µM [quencher, side channel, single point]"
8,COc1ccc(-c2cc(-c3ccccc3)[n+](C)c(-c3ccccc3)c2)cc1,"inconclusive: 31.6 µM [quencher, side channel, single point]"
9,O=C1NC(=O)C(=Cc2ccc(Oc3ccc([N+](=O)[O-])cc3)cc2)C(=O)N1,"inconclusive: 20 µM [quencher, side channel, partial curve]"
10,Cc1ccc(N2C(=O)NC(=O)/C(=C\c3cc(C)n(-c4sc5c(c4C#N)CCCC5)c3C)C2=O)cc1,inactive
11,O=C(C1CCCN(S(=O)(=O)c2cccc3nsnc23)C1)N1CCC2(CC1)OCCO2 (configuration not stated),"inconclusive: 17.8 µM [quencher, partial curve]"
12,N#CCCn1cc(C(=O)O)c(-c2cccc([N+](=O)[O-])c2)n1,"inconclusive: 14.1 µM [quencher, side channel, partial curve]"
13,COc1ccc(-c2cc(=NCCCCCC(=O)O)c3cc(C)ccc3o2)cc1,"inconclusive: 11.2 µM [quencher, side channel, partial curve]"
14,O=[N+]([O-])c1ccc(NCCCN2CCOCC2)c2ncccc12,"inconclusive: 3.16 µM [quencher, side channel, partial curve]"
15,COc1cccc(-n2c(=S)[nH]c3ccccc3c2=O)c1,inactive
16,CN1CCN(c2cc([N+](=O)[O-])ccc2Cl)CC1,"inconclusive: 35.5 µM [quencher, side channel, single point]"
17,COP(=O)(OC)C(Nc1ccc([N+](=O)[O-])cc1)c1ccccc1 (configuration not stated),"inconclusive: 15.8 µM [quencher, side channel, partial curve]"
18,CCCCn1c(N)c(C(=O)NCCN2CCOCC2)c2nc3ccccc3nc21,"inconclusive: 20 µM [quencher, side channel, partial curve]"
